Measurements published in PubChem BioAssay AID1631 (National Center for Advancing Translational Sciences (NCATS), 2009).
Hit rate of the full screen: of about 260,000 compounds, about 890 (0.34%) were called active. Inconclusive means that the source gave no clear call. Such entries were picked first, then a sample of the others. Calls follow the shape of the dose curve; as a rule, active = well fitted activation curve with a large enough effect; inconclusive = small, poorly fitted or top-dose-only effect; inactive = no such curve, though single readings can be large or run the other way. Potencies of inconclusive entries are doubtful fits and often do not repeat.

biological target: Pyruvate kinase PKM (Homo sapiens) (UniProt P14618); experiment: qHTS Assay for Activators of Human Muscle isoform 2 Pyruvate Kinase; conditions: purified PKM2, Kinase-Glo ATP luminescence; Potency: activation; activation: at 57.5 µM (top of the series), 0% is enzyme alone, no compound; also: nearly all actives have a fitted effect of over 55% in size
Summary of the method: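 Kinase-Glo luminescence reports ATP generated from ADP (0.1 mM) and PEP (0.5 mM) by purified hPK-M2 after 1 h at room temperature, pH 7.2 imidazole buffer; intermediate enzyme activity allows detecting inhibitors and activators.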
% is scaled to controls: 0 for no effect and ±100 for the full control effect; potency is read from the fitted curve at half-maximal effect; tags tell the direction and shape of the fitted curve.

Chain of UniProt P14618 (P14618 whole entry, looked up, canonical isoform): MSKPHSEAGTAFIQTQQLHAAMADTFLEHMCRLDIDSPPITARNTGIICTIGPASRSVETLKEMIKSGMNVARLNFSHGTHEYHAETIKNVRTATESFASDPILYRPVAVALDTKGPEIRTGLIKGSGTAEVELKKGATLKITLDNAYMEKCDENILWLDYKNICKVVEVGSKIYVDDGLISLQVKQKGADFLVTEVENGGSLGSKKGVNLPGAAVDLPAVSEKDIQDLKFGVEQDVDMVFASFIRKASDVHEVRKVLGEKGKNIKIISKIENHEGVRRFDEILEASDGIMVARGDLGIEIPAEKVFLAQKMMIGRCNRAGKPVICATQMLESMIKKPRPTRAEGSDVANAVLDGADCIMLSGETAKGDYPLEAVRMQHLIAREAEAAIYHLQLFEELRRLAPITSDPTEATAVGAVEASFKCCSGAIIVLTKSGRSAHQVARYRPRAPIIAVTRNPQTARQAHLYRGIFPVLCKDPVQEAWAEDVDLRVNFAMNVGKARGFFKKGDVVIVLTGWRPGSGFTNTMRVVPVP

activation, inactive:
COc1cccc(CNC(=O)Cn2nc(-c3ccc(Cl)cc3)ccc2=O)c1 -1.05%, CCCn1nc(NC(=O)c2ccncc2)c2cc3ccccc3nc21 -6.04%, Cc1cc2nc(-c3cccnc3SCC(=O)NCc3ccco3)[nH]c2cc1C -42.9%, CCCCCC(=O)NNC(=O)c1ccc(F)cc1 -2.96%, COC(=O)Nc1cc(C)nc2ccccc12 -1.67%, COc1ccc(-c2nnc(SCc3ccccc3F)o2)cc1OC -0.333%, Cc1ccc2ccc3ccc(C)nc3c2n1 0.4%, CC(=O)OCCn1c2nc(=O)[nH]c(=O)c-2nc2cc(C)c(C)cc21 3.28%, COc1ccccc1-c1nc(=S)c(C(C)=O)c(C)[nH]1 -4.92%, C/C(=N\NC(=O)c1ccc(C)cc1C)c1ccc2c(c1)OCO2 0.284%, Cc1ccc2nc(-c3ccc(NC(=O)COC(=O)c4ccco4)cc3)sc2c1 10%, Cc1nc(Nc2ccc(Cl)c(Cl)c2)sc1C(=O)Nc1ccccc1 3.78%

Potency, inconclusive:
C/C(=N\NC(=S)Nc1ccccc1)C1Cc2ccccc2C(=O)O1 (stereo not drawn) 20 µM [rising, single point], Cc1ccc(-c2cc(C(=O)Nc3cccc(S(=O)(=O)N(C)C)c3)c3ccccc3n2)o1 12.6 µM [rising, partial curve], C=CCn1c(Sc2ccccc2)nc2c1c(=O)[nH]c(=O)n2C 39.8 µM [rising, single point], O=C(Nc1nc2c(F)cc(F)cc2s1)C1CC(=O)N(Cc2ccco2)C1 (stereo not drawn) 35.5 µM [rising, single point], COc1cc(-c2nnc(SCc3cc(=O)oc4cc(O)c(O)cc34)o2)cc(OC)c1OC 20 µM [rising, single point], CCOC(=O)c1c(N2C(=O)C3C4C=CC(O4)C3C2=O)sc2c1CCCC2 (stereo not drawn) 39.8 µM [rising, single point], O=C(COc1cc(Cl)c(Cl)cc1Cl)NCCc1ccccn1 10 µM [rising, partial curve], CC(C)=C1C2C=CC1C1C(=O)N(c3ccc4c(c3)OCO4)C(=O)C21 (stereo not drawn) 39.8 µM [rising, single point], CC(=O)c1ccc(OC(C)C)c(CN2CCCCC2)c1 25.1 µM [rising, single point], CCOc1ccc(NS(=O)(=O)c2ccc3c(c2)oc(=O)n3C)cc1 14.1 µM [rising, partial curve], COc1ccc(C(NC(=O)/C=C/c2ccco2)c2ccc(OC)c(OC)c2)cc1OC 39.8 µM [rising, single point], Cc1ccc2cc(/C=N/NC(=O)c3ccccc3O)c(Cl)nc2c1 12.6 µM [rising, partial curve], CCN=c1scc(C)n1/N=C/c1ccc(O)c(O)c1O 10 µM [rising, partial curve], CC(=O)Nc1ccc(CN2CCN(Cc3ccc(C)cc3)C(CCO)C2)cc1 (stereo not drawn) 39.8 µM [rising, single point], O=C(CC(Cc1ccccc1)c1ccco1)NCc1ccco1 (stereo not drawn) 39.8 µM [rising, single point], O=C(O)C(O)c1ccco1 (stereo not drawn) 25.1 µM [rising, single point], Nc1ncnc(SCc2c(F)cccc2Cl)n1 39.8 µM [rising, single point], O=C(CSc1ccc(-c2cccnc2)nn1)Nc1ccc(F)c(F)c1 5.62 µM [rising, full curve], CN(C1CCCCC1)S(=O)(=O)c1ccc(-c2ccccn2)s1 39.8 µM [rising, single point], COc1ccccc1NS(=O)(=O)c1ccc2oc(=O)ccc2c1 8.91 µM [rising, partial curve, poor fit], COc1ccc2c(c1)SC1=NCCS(=O)(=O)N12 28.2 µM [rising, partial curve], c1ccc2c(c1)NC1(CCCCC1)n1c-2nc2ccccc21 31.6 µM [rising, single point], CNC(=O)COC(=O)c1cc(-c2ccco2)nc2ccccc12 20 µM [rising, partial curve], Cc1cccc(C(=O)OCC(=O)NCc2cccs2)c1 28.2 µM [rising, single point], CCOC(=O)c1sc(NC(=O)/C=C/c2ccc(F)cc2)nc1C 35.5 µM [rising, single point], COc1cc(OC)c(NC(=O)c2cc(S(=O)(=O)N3CCOCC3)cn2C)cc1Cl 39.8 µM [rising, single point], O=C(Nc1cc(=O)[nH]c2ncnn12)c1ccccc1F 39.8 µM [rising, single point], CN(c1ccc(F)cc1)S(=O)(=O)c1ccc(Cl)c(C(=O)OCC(=O)NCc2ccco2)c1 39.8 µM [rising, single point], O=[N+]([O-])c1cc(C(F)(F)F)ccc1NCCc1c[nH]c2ccccc12 20 µM [rising, single point], COc1cc(C(=O)NCCCNc2ccc([N+](=O)[O-])cc2)cc(OC)c1OC 20 µM [rising, single point], COc1ccc(Oc2ccc(S(=O)(=O)N3CCCCC3)cc2S(=O)(=O)N2CCCCC2)cc1 8.91 µM [rising, single point]

Potency, active:
Cc1ccc(NS(=O)(=O)c2ccc3oc(=O)ccc3c2)cc1Cl 1 µM, Nc1nc(SCC(=O)Nc2ccc(Br)cc2F)n[nH]1 22.4 µM, Cc1cccc(NS(=O)(=O)c2cc3c(cc2C)NC(=O)CO3)c1 0.708 µM, O=S(=O)(c1cccs1)N1CCN(S(=O)(=O)c2cccs2)CC1 0.398 µM, COCCNS(=O)(=O)c1ccc2c(c1)C(=NO)c1cc(S(=O)(=O)NCCOC)ccc1-2 10 µM
